Data as given in the supplement of paper PMC11417369.
± gives the standard deviation of the averaged measurements. Some of the results follow.

Tested on: PfAP2-I AP2 domain 3 (GST-tagged)
Assay: gcPBM binding intensity (ln(normalized median fluorescence intensity)); higher = stronger DNA binding
Outline: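 Using an Agilent 4 × 180k array, primer-extended double-stranded 36-bp intergenic genomic probes and negative controls were exposed for 1 h to GST-fused P. falciparum DNA-binding domains expressed in E. coli. Binding was carried out in 1× PBS with 1% milk, 0.2 mg/ml BSA, 0.5% salmon testes DNA and 0.03% Triton X-100, and protein was detected with Alexa488 anti-GST antibody and a 488 nm scan. Binding intensity is the highest Masliner-normalised natural-log median intensity across replicate spots of either probe orientation.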

In order of rising “gcPBM binding intensity (ln)” value:
1. TATTTTTTTTCAAAAAAGTTTATTTAGAACTAAATA [XGTACX_negctrl_site487]  7.18 ± 0.46
2. TTATATAGAATTAATTTCTTTTTTTTCTTTTTTAAA [CACACA_negctrl_site1308]  7.24 ± 0.54
3. TGAAATTAGATATATACACACATATAGATTTATATG [CACACA_site7619]  7.47 ± 0.51
4. ATGAATTAATCTAATCGTACAATAAGCATTATTATA [XGTACX_site2571]  7.49 ± 0.47
5. ATTTTTTTTTTTTTTTCATGAAATTTTTTTTTTTTT [CACACA_negctrl_site1069]  7.5 ± 0.57
6. ATAAATACGATTAATTAGGTTTGTATAAATTAAATT [GTGCAC_negctrl_site635]  7.5 ± 0.47
7. TTAAAAAAAAATAAAGGTACACGGAGAAATCCTTTT [XGTACX_site7509]  7.51 ± 0.76
8. TATAATGGTAAAAACACACAAATATGAAGATGTTAA [CACACA_site6479]  7.51 ± 0.61
9. AAAGTATACAATGACGCATGCATATATATATACATA [TGCATGCA_site429]  7.52 ± 0.64
10. ATATGGAATGATCATAGTACATAATTTAAAATTTTA [XGTACX_site3568]  7.52 ± 0.59
11. AATATATTAAATCTTACACACTAAAAAATATGTAAC [CACACA_site4325]  7.53 ± 0.57
12. AACATATATAATATTTGTACTTATATACAAAATATG [XGTACX_site7502]  7.53 ± 0.28
13. ATTAAAAATTATATTTTATAAAAATTAAAAGAAATA [CACACA_negctrl_site65]  7.57 ± 0.35
14. ATCAGATATATATATTGTACATTTATATATAAATCA [XGTACX_site1960]  7.61 ± 0.44
15. AAAAAAAATTATATTTGTACGCATTAAAAAATCTAA [XGTACX_site1616]  7.64 ± 0.26
16. ATAAATTGATTCAACACACACATATGTAGGAAGTTA [CACACA_site3253]  7.66 ± 0.51
17. ATATTTATGGAATATACACACATGTATAATTATATA [CACACA_site2033]  7.67 ± 0.51
18. ATTTATTTTTTGTGTTCACACATTAGTATCATCTAT [CACACA_site5274]  7.68 ± 0.57
19. ATTAAACTCATTAAGAGTACAGATAACATTAAAGTA [XGTACX_site8697]  7.68 ± 0.51
20. CTATAATAGAAGTGTACACACATATTTATGTCTGTA [CACACA_site7462]  7.7 ± 0.33
21. TATAATATATATATATGTACATATTATTTACATATA [XGTACX_site7312]  7.71 ± 0.4
22. AAAATTGTGAAAGGGAAGATGATCAAATTGTTAAGG [CACACA_negctrl_site1492]  7.71 ± 0.79
23. TAAAATATAGGAAATACATGCATATTAAATATTCCT [TGCATGCA_site1057]  7.71 ± 0.57
24. GAATATGTAAAGAAAGGTACACATGAAAATATGTGT [XGTACX_site446]  7.71 ± 0.66
25. TGTACCTACAAAATATGATATATTTTTATAAATTGT [XGTACX_negctrl_site498]  7.71 ± 0.16
26. ATAAAGAAAATATGGAGTACATTTATATCCAATATA [XGTACX_site3085]  7.72 ± 0.28
27. TGTTTAACACATGTTTCAAACAAAAAAAAAAAGACA [CACACA_negctrl_site1356]  7.73 ± 0.52
28. TCATGTAGTAAAAACTGTACAAATTATTTATCATGT [XGTACX_site1727]  7.74 ± 0.56
29. TCTAATGATATATACACACACATATAGATTTATATA [CACACA_site7044]  7.75 ± 0.33
30. TTAATCAAATTACTATGTACATAAAACATATAAGAA [XGTACX_site381]  7.75 ± 0.54
31. TAGAATATGTTTAGTTGTACAAAACAAAATGGAATT [XGTACX_site5293]  7.76 ± 0.59
32. ATTTATTTATCTAGCTATTCACCATTTTCTTTTGTT [CACACA_negctrl_site1259]  7.78 ± 0.54
33. ACTAATACATAAAAAAGTACAAATATGAGTATTAAC [XGTACX_site7281]  7.78 ± 0.6
34. TGTAGTAATGCTTATTGTACATATACATTTCTTACA [XGTACX_site219]  7.79 ± 0.46
35. TATATAGCTAAAAACACACAAATATGTACACATAAA [CACACA_site7665]  7.79 ± 0.37
36. AAGAATTATATATTCACACAAAAAAAAAGTAAAAGA [CACACA_site5335]  7.82 ± 0.58
37. AAATAAGAAAAAGCGCGTACACATAACATTTTTATA [XGTACX_site8807]  7.82 ± 0.54
38. TTTTTTAAAGCCTGTTCATCATCCTTACCTATCAAC [GTGCAC_negctrl_site452]  7.84 ± 0.65
39. TATTTTTTCTTAAACACACACATATAGATTTATAAC [CACACA_site7354]  7.89 ± 0.48
40. TATCCATTATTTAAAAGTACAAAAAACGATTTACAC [XGTACX_site2979]  7.92 ± 0.56
41. AAAAAAAAAAAAAAGAGTACATTTATTTATATATCT [XGTACX_site2381]  7.93 ± 0.38
42. TATTATATATATGGAAGTACAGGTATATCGTTTTTC [XGTACX_site3771]  7.93 ± 0.66
43. GGGTATACCAATATAACACACATATATATATAATAT [CACACA_site450]  7.93 ± 0.54
44. ATAAGCATACATATTACACACATATAACATCTATAT [CACACA_site7219]  7.93 ± 0.66
45. TTTTCTTTATTATAATGTACTCACAAATAAATATAA [XGTACX_site7298]  7.96 ± 0.38
46. TTTTAACATAGAAGTACACACATATAATCAATCATA [CACACA_site5313]  7.995 ± 0.078
47. AACCACCACACCATCACACATAAGATTAGACGAGTA [CACACA_site6063]  8.03 ± 0.48
48. TACTTCATTCATTTTACACACATATAAACCCTTTTA [CACACA_site3229]  8.03 ± 0.58
49. TTTTATGAAAAATGGCTTATCTGTAAAGAAGTGGAG [CACACA_negctrl_site1586]  8.04 ± 0.47
50. AAATTATTAAAAAAGTGTACATATTTTTATAATACC [XGTACX_site5610]  8.04 ± 0.45
51. TTACAAGTAAAAGGTACACACATTATAAATACAAAT [CACACA_site4752]  8.04 ± 0.63
52. TAGAAAATCAGTTAAACACACACATAAAAAAAAAAA [CACACA_site8933]  8.06 ± 0.68
53. TTTTCCCTTAACCTCTGTACATATAATTTTCTTTCC [XGTACX_site4180]  8.11 ± 0.73
54. GATGGGCAAATTTACTGTACTTTTATAATATTTTTT [XGTACX_site4830]  8.14 ± 0.53
55. CTAATTCGTATATGCTGTACCTTTTTCTTACGACTA [XGTACX_site4392]  8.15 ± 0.74
56. ATAGTTAAAAAAAAAAAAAAAAAAAAAAGAGAGAGA [CACACA_negctrl_site1307]  8.16 ± 0.36
57. AAAAAAAAAAAAAGTACACACATACAGATAAATATA [CACACA_site5067]  8.19 ± 0.014
58. TTTCATTTTAGAAGTACACACAAAAAATAAAATAAT [CACACA_site2141]  8.21 ± 0.2
59. AATACAATAAAAAAAAGTACACATGTATAAAAAATT [XGTACX_site8270]  8.21 ± 0.39
60. ACCCTATTTATATATACACACACATATATAAATAAA [CACACA_site8980]  8.24 ± 0.36
61. TATATAATATATATATGTACACATTTGCAAACAATG [XGTACX_site6941]  8.26 ± 0.26
62. AATATCACATTCCACGGTACACACTAAAAGAAAAAT [XGTACX_site7653]  8.28 ± 0.5
63. TTTTTTTTTCGCTTTTGTACACATTTTATAGAACAG [XGTACX_site2416]  8.29 ± 0.53
64. GTACCTATAAATATTACACACATTTTCATTTTTAAC [CACACA_site7022]  8.3 ± 0.48
65. TTTTCTGTTTTCATTACACACCTTACAAGAACAATA [CACACA_site2158]  8.34 ± 0.52
66. CTTTTTCTTTTCCGGCGTACAGACTTAGTAGTAGAT [XGTACX_site2268]  8.34 ± 0.39
67. AATATATCTTATTTAACACACACAAAGAAAATAGAA [CACACA_site9242]  8.35 ± 0.28
68. TGTTATCAGAAAGCACGTACATATAATTATATATTC [XGTACX_site4188]  8.35 ± 0.45
69. TTTTAAATTTTTTAAAGTACACGTCGAAAAGGTATA [XGTACX_site76]  8.43 ± 0.23
70. TGTCCTTATTGGCACACACACATATAAGAAATTTAA [CACACA_site5724]  8.45 ± 0.071
71. CTTAAAAACAAAAATGCACACATAATAAGCATATGT [CACACA_site9149]  8.46 ± 0.13
72. ATAACTTTTGCGCGTACACACATTTATCCTCTTTAT [CACACA_site209]  8.63 ± 0.66
73. CACATAAAAAAATAAACACACATATGTATATATATA [CACACA_site3177]  8.8 ± 0.18
74. AAATATATACTACCGATGCACTAAATATAAACACAT [GTGCAC_site9777]  8.88 ± 0.5
75. ATATATTTATTATTAGGTACACATATATATATATAT [XGTACX_site5045]  9.23 ± 0.23
76. TACATGCAAAAAATTCCACACACACCCCCACATATA [CACACA_site8329]  9.27 ± 0.15
77. TATATATATATACATACATGCATATATATATATATA [TGCATGCA_site513]  9.34 ± 0.45
78. AAATATACATACATATGTACATATATATATATATAT [XGTACX_site8202]  9.43 ± 0.76
79. AAATATTTTTTAATTGTTCACTTGGTGGATCATTAA [CACACA_negctrl_site922]  9.44 ± 0.84
80. ACTTTTTTGAACAACGTGCACGTATTCATAACAAAA  9.61 ± 0.38
81. ATAGGATGTTTGCACTGTACCAAAAAATGAGCTGCA [XGTACX_site2825]  9.88 ± 0.32
82. TGTATTCTCTTAGTAGTGCATTTGAAGATTATATAA  10.1 ± 0.37
83. ACAATAAAGAACAGTATGCACTTTTATGCATGCGTA  10.4 ± 0.24
84. TGCTTTTCTTTTTGCACACTTATGCATATATATATA [CACACA_site2583]  10.46 ± 0.014
85. TTTTTTAAATTGGTAGTGCAATATGATTGAACAAAA [GTGCAC_site9715]  10.9 ± 0.79
86. TTCTTATTTGTACTAGTGCAATAGAAAATAAATAAA [GTGCAC_site9731]  10.9 ± 0.49
87. TTTATTCAAGGAATAGTGCATAATAATAAGTATTAT  11.2 ± 0.62
88. AATATTCAATATAAAGTGCATTATTGTGGACCTAAT  11.3 ± 0.65
89. ATTTTTCTAAAATACTGTACAAAGGTGCATAAAAAG [XGTACX_site4425]  11.8 ± 0.87
